B1: Caulobacter ParB omega fusion; a variant is named by its letters at X, in order, B8GW30 (parent)
chain: MESVVVGEPGMSEGRRGLGRGLSALLGEVDAAPAQAPGEQLGGSREAPIEILQRNPDQPRRTFREEDLEDLSNSIREKGVLQPILVRPSPDTAGEYQIVAGERAWRAAQRAGLKTVPIMVRELDDLAVLEIGIIENVQRADLNVLEEALSYKVLMEKFERTQENIAQTIGKSXSHVANXMRLLXLPDEVQSYLVSGELTAXHARAIAAAADPVALAKQIIEGGLSVRETEALARKAPNLSAGKSKGGRPPRVKDTDTQALESDLSSVLGLDVSIDHRGSTGTLTITYATLEQLDDLCNRLTRGI

Over roughly 81,000 sequences, “one-hybrid fitness for binding parS DNA” has its median near -0.17; the highest 2% begin near 0.51. Some of the results follow.

In the assay the parent is B1. Briefly: one-hybrid fitness for binding parS DNA (scaled: cognate 1, non-cognate 0); higher = stronger binding. To be noted: with parS DNA site. The procedure, abridged: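 Values were rescaled so that cognate is 1 and non-cognate is 0. Each is a fitness, the log change in a variant's read ratio to wild type from Illumina reads of plasmids before and after selection, with three replicate libraries pooled and variants under 10 reads dropped. Selection of the Caulobacter ParB libraries, four specificity codons randomised, used E. coli USO with a HIS3 reporter, site 19 bp from the promoter, on M9-minus-histidine with 0.1 mM IPTG and 5 mM 3-AT for 48 hours at 37°C.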
Turning to FHCW, the “one-hybrid fitness for binding parS DNA” value was not above 0.2.
In the case of QFIL, the “one-hybrid fitness for binding parS DNA” value was not above 0.2.
For KWCG the value was not above 0.2.
In the case of DFFS it was not above 0.2; in that of RWSL, not above 0.2.
In the case of QVDG it was not above 0.2; in that of RHGE, 0.244; in that of YHRG, not above 0.2.
With FPHT, the “one-hybrid fitness for binding parS DNA” value is not above 0.2.
For AKFR the value was not above 0.2.
For WELG, the “one-hybrid fitness for binding parS DNA” value is not above 0.2.
In the case of RCRM it was 0.365; in that of CTLY, not above 0.2; in that of VVTK, not above 0.2.
In the case of KVKP it was not above 0.2.
For LCSN the value was not above 0.2; for NGFS, not above 0.2.
Regarding VQQV, the “one-hybrid fitness for binding parS DNA” value was not above 0.2.
In the case of VMAT, the “one-hybrid fitness for binding parS DNA” value was not above 0.2.
For CRVS the value was not above 0.2; for TQKT, not above 0.2; for CTHS, not above 0.2.
For WYLR the value was not above 0.2.
KWET: the “one-hybrid fitness for binding parS DNA” value is not above 0.2.
For PIQY the value was not above 0.2; for LDGT, not above 0.2.
In the case of NSCK it was not above 0.2.
For PQYN the value was not above 0.2; for TSMN, not above 0.2.
Turning to QGRA, the “one-hybrid fitness for binding parS DNA” value was not above 0.2.
As for PLSA, the “one-hybrid fitness for binding parS DNA” value was not above 0.2.
In the case of VLCF it was not above 0.2; in that of PVAG, not above 0.2; in that of YPAW, not above 0.2.
In the case of PYKP, the “one-hybrid fitness for binding parS DNA” value was not above 0.2.
For HLRD the value was not above 0.2; for DRPV, not above 0.2.
In the case of DLEC it was not above 0.2; in that of STHI, not above 0.2.
In the case of VWQG it was not above 0.2; in that of YNHC, not above 0.2.
For GPHV, the “one-hybrid fitness for binding parS DNA” value is not above 0.2.
In the case of PTSW it was not above 0.2; in that of CVKG, not above 0.2.
For KSTT the value was not above 0.2.
For THMF the value was not above 0.2; for SDDI, not above 0.2.
Turning to VKKS, the “one-hybrid fitness for binding parS DNA” value is not above 0.2.
For EILG the value was not above 0.2.
For QHYT the value was not above 0.2; for TWSS, not above 0.2.
For FIHS, the “one-hybrid fitness for binding parS DNA” value is not above 0.2.
For PMPD the value was not above 0.2.
For PKCW the value was not above 0.2; for HPDF, not above 0.2.
In the case of AREA it was not above 0.2.
Turning to YLKA, the “one-hybrid fitness for binding parS DNA” value is not above 0.2.
In the case of FTTF it was not above 0.2; in that of AYPF, not above 0.2.
For TGAK the value was not above 0.2; for TPSD, not above 0.2.
For VPWV the value was not above 0.2.
Take IPRH: the “one-hybrid fitness for binding parS DNA” value was not above 0.2.
For DTSR the value was not above 0.2.
In the case of RHEW, the “one-hybrid fitness for binding parS DNA” value was not above 0.2.
For QNIF the value was not above 0.2.
For ARAA the value was not above 0.2; for SKLN, not above 0.2; for FRFG, not above 0.2.
Regarding CNRQ, the “one-hybrid fitness for binding parS DNA” value was not above 0.2.
In the case of DLET it was not above 0.2.
Consider KDAT, for which the “one-hybrid fitness for binding parS DNA” value was not above 0.2.
In the case of HPSH it was not above 0.2; in that of AWRF, not above 0.2.
For RSET the value was 0.653.
In the case of PNMG it was not above 0.2; in that of HSIM, not above 0.2.
As for DLQC, the “one-hybrid fitness for binding parS DNA” value is not above 0.2.
In the case of TWKT it was not above 0.2; in that of DMTT, not above 0.2; in that of THDP, not above 0.2.
For PLKR the value was not above 0.2.
In the case of RSQD it was not above 0.2; in that of LLGM, not above 0.2.
Turning to IHKH, the “one-hybrid fitness for binding parS DNA” value is not above 0.2.
In the case of ITAA it was not above 0.2; in that of CWHR, not above 0.2; in that of YARD, not above 0.2.
In the case of LVPT it was not above 0.2.
In the case of VMKY it was not above 0.2.
As for KQAS, the “one-hybrid fitness for binding parS DNA” value is not above 0.2.
In the case of GRTP it was not above 0.2; in that of LIYL, not above 0.2.
NMSA: the “one-hybrid fitness for binding parS DNA” value is not above 0.2.
For CNFC the value was not above 0.2; for SRCT, not above 0.2; for MSTS, not above 0.2.
For VETM the value was not above 0.2; for KIDL, not above 0.2; for QTHL, not above 0.2.
For MTIT the value was not above 0.2; for NHII, not above 0.2.
Take APHN: the “one-hybrid fitness for binding parS DNA” value is not above 0.2.
Consider RSNY, for which the “one-hybrid fitness for binding parS DNA” value worked out at 0.496.
For LPAT the value was not above 0.2; for ANRQ, not above 0.2.
For VWTR the value was not above 0.2; for SLPS, not above 0.2; for PLVS, not above 0.2.
For EDPV the value was not above 0.2.
Turning to GVHF, the “one-hybrid fitness for binding parS DNA” value was not above 0.2.
Consider RTVK, for which the “one-hybrid fitness for binding parS DNA” value is not above 0.2.
For ECKC the value was not above 0.2.
For DVIR the value was not above 0.2; for DTIC, not above 0.2.
For WQLS the value was not above 0.2; for LSRQ, not above 0.2; for LKEL, not above 0.2.
For the variant LMIC, the “one-hybrid fitness for binding parS DNA” value was not above 0.2.
In the case of YSTV it was not above 0.2.
For RVHC the value was 0.965; for AFWG, not above 0.2; for HCAG, not above 0.2.
For RFKH the value was 0.252; for PNKD, not above 0.2.
For WNMP, the “one-hybrid fitness for binding parS DNA” value was not above 0.2.
For QSMT the value was not above 0.2.
For GNMT the value was not above 0.2; for RLIW, not above 0.2; for TSLQ, not above 0.2.
In the case of AMTD it was not above 0.2.
In the case of LLTV, the “one-hybrid fitness for binding parS DNA” value was not above 0.2.
In the case of VHRF it was not above 0.2.
In the case of DYST it was not above 0.2; in that of TNNA, not above 0.2; in that of GMLH, not above 0.2.
RQWH: the “one-hybrid fitness for binding parS DNA” value was not above 0.2.
In the case of EHCN it was not above 0.2; in that of IGTF, not above 0.2; in that of QRAK, not above 0.2.
In the case of MDQG, the “one-hybrid fitness for binding parS DNA” value was not above 0.2.
For VESR the value was not above 0.2; for ENHS, not above 0.2.
In the case of DHTC it was not above 0.2.
In the case of MIMS it was not above 0.2; in that of RPQS, not above 0.2.
Regarding MYYC, the “one-hybrid fitness for binding parS DNA” value is not above 0.2.
As for SGDF, the “one-hybrid fitness for binding parS DNA” value is not above 0.2.
In the case of IYPN it was not above 0.2.
With SMHA, the “one-hybrid fitness for binding parS DNA” value was not above 0.2.
For KPQV the value was not above 0.2.
For TFIM the value was not above 0.2.
In the case of MLFG it was not above 0.2.

These data come from a collection of fitness landscapes (doi:10.1016/j.celrep.2020.107928).
